# Source: PubChem BioAssay (NCATS)
# Values joined by “and” are separate entries in the source; they are usually repeats but may differ in a detail not shown here. Equal entries are not always repeated. The shares of active, inactive and inconclusive entries below differ from those in the screen. For some of these results: Potencies of inconclusive entries are left out as doubtful fits. Active and inactive are the calls of the source. Unless noted, calls come from the whole dose curve; as a rule, active = well fitted curve in the direction sought with a large enough effect; inconclusive = small, poorly fitted or top-dose-only effect, or another doubt; inactive = no such curve, though single readings can be large; an effect the other way counts as inactive or inconclusive.
# Legend:
# [1] = target: Cytochrome P450 3A4 (Homo sapiens) (UniProt P08684); test: qHTS Assay for Inhibitors and Substrates of Cytochrome P450 3A4 (AID 884); conditions: recombinant CYP3A4, Luciferin-PPXE luminescence; series mostly up to 57.1 µM; note: potency is the fitted concentration of half-maximal effect; nearly all actives have a fitted effect of over 50% in size
# Chain of UniProt P08684 (P08684 whole entry, looked up): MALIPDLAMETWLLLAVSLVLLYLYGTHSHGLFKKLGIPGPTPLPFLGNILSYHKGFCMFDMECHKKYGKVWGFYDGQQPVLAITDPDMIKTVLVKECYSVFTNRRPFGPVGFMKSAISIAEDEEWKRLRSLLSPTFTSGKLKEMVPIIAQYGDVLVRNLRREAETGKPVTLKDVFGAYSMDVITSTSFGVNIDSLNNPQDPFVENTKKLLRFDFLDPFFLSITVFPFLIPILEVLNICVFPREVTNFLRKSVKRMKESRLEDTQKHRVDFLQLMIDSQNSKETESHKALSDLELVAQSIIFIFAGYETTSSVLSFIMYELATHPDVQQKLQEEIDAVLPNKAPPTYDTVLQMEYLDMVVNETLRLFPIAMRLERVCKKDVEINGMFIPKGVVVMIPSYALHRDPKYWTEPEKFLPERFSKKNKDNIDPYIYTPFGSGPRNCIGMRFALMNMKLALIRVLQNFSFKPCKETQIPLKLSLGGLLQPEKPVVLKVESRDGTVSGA
# How it was run: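 20 nM human CYP3A4 with 25 uM Luciferin-PPXE (at KM) in 200 mM KPO4, preincubated 10 min with compound; NADPH regeneration started a 60 min RT reaction. Luciferin detected by luminescence, normalized to 57 uM ketoconazole as full inhibition.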
# [2] = target: Cytochrome P450 2D6 (Homo sapiens) (UniProt P10635); test: qHTS Assay for Inhibitors and Substrates of Cytochrome P450 2D6 (AID 891);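 note: luciferin methyl ether substrate demethylated by CYP2D6 with NADPH regeneration; potency is the fitted concentration of half-maximal effect; nearly all actives have a fitted effect of over 60% in size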
# Chain of UniProt P10635 (P10635 whole entry, looked up): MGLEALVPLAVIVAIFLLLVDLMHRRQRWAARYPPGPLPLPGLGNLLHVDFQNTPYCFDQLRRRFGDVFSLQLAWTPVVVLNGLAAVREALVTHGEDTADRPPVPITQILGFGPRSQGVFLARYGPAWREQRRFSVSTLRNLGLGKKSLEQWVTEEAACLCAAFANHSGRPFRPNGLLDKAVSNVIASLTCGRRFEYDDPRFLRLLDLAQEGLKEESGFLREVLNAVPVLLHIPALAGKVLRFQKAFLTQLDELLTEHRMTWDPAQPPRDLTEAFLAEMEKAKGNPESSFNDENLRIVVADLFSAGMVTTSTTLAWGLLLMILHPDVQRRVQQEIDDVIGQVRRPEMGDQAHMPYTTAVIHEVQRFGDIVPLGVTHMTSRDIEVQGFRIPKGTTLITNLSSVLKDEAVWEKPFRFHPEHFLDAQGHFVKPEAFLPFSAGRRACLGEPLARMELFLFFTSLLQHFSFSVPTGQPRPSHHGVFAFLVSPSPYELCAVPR
# How it was run: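 Human CYP2D6 (5 nM) with 30 uM Luciferin-ME EGE (at Km) in 100 mM KPO4, compound preincubated 10 min, then NADPH regeneration system for 60 min at room temperature. Luciferin read by luminescence; normalized to 1.43 uM quinidine.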
# [3] = target: Cytochrome P450 2C19 (Homo sapiens) (UniProt P33261); test: qHTS Assay for Inhibitors and Substrates of Cytochrome P450 2C19 (AID 899); conditions: recombinant CYP2C19, luciferin-H EGE luminescence; series mostly up to 11.4 µM; note: nearly all actives have a fitted effect of over 60% in size; note: potency is the fitted concentration of half-maximal effect
# Chain of UniProt P33261 (P33261 whole entry, looked up): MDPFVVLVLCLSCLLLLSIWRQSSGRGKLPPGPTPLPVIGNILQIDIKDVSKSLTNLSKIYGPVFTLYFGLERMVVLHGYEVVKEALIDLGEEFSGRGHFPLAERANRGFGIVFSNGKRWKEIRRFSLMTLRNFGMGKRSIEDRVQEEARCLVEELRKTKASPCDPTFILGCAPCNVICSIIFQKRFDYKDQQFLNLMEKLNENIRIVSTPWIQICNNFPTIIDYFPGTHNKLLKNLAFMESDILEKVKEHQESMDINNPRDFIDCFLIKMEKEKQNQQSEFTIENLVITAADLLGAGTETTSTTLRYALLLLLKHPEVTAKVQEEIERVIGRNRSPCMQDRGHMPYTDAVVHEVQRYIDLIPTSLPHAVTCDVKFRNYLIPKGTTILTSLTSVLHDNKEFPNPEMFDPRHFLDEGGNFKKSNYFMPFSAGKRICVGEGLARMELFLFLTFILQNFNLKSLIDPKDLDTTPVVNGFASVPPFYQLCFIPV
# How it was run: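 Luminescence readout of luciferin formed from 10uM Luciferin-H EGE (KM level) by 5 nM CYP2C19 in 50mM KPO4. 60 min NADPH-driven reaction at 37C after 10 min compound preincubation; data scaled to 57uM ketoconazole inhibition.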
# [4] = target: Cytochrome P450 3A4 (Homo sapiens) (UniProt P08684); test: qHTS Assay for Activators of Cytochrome P450 3A4 (AID 885); note: nearly all actives have a fitted effect of over 65% in size
# How it was run: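 Quantitative HTS format: compounds preincubated with 20nM human CYP3A4 and Luciferin-PPXE substrate at KM, reaction started by NADPH regeneration, stopped after 60 min, luciferase luminescence read 20 min later.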
# [5] = qHTS Assay for Identification of Small Molecule Agonists for Hypoxia Response Element Signaling Pathway (AID 914; active = well fitted activation curve with a large enough effect in the signal ratio, with a control signal flat, not every such curve was filed as active; inconclusive = small, poorly fitted or top-dose-only effect, or effect the other way, or a change in a side signal; the % refers to the signal ratio; note: potency is the fitted concentration of half-maximal effect); conditions: ME-180 (cervical carcinoma) HRE-bla reporter, beta-lactamase ratio, CoCl2, 17 h; activation: hits give high values
# How it was run: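 HRE-bla ME-180 assay for agonist-like enhancement of an EC50 CoCl2 stimulus: 17 h at 37 degrees Celsius, CCF4 for 2.5 h, ratiometric 460/530 nm signal converted to %Activity and fitted to AC50.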
# Tags give direction and shape of the fitted curve or compound fluorescence and quenching.
smiles,measurement,setting,value
COc1ccc(O[C@H]2C=C[C@@H](c3ccccc3)O[C@H]2COC(=O)CC/C(C)=N\O[C@@H](C)c2cn([C@H](CO)Cc3ccccc3)nn2)cc1,Potency,[1],active: 3.98 µM and active: 5.01 µM
same,Potency,[2],"inconclusive [inhibitor, single point]"
N/N=C1/c2ccccc2N[C@H]1OC(=O)Nc1cccc(Cl)c1,Potency,[1],"inconclusive [inhibitor, single point]"
same,Potency,[2],"inconclusive [inhibitor, single point]"
same,Potency,[3],"inconclusive [inhibitor, single point]"
CCCCNc1nc(C)nc2c1nc(-c1ccccc1)n2CCCN1CCCCC1C (stereo unspecified),Potency,[1],active: 6.31 µM
same,Potency,[4],inactive
O=C(O)c1c(Cl)c(Cl)c(Cl)c(Cl)c1C(=O)Nc1ccc2cn[nH]c2c1,Potency,[1],"inconclusive [inhibitor, partial curve]"
same,Potency,[2],"inconclusive [inhibitor, partial curve]"
same,Potency,[5],"inconclusive [inhibitor, partial curve]"
CC1(CC(=O)O)O[C@H]2CCCCC[C@H]2O1 (stereo partly specified) (tested in a mixture with another compound),Potency,[1],"inconclusive [inhibitor, full curve]"
same,Potency,[2],"inconclusive [inhibitor, single point]"
N/C(CC(=O)Nc1cc(C(F)(F)F)ccc1Cl)=N\O,Potency,[1],"inconclusive [inhibitor, partial curve]"
same,Potency,[3],inactive
COc1ccc(C=Nc2c(O)ccc3ccccc23)cc1OC,Potency,[1],"inconclusive [inhibitor, single point]"
same,Potency,[3],"inconclusive [inhibitor, single point]"
